Our source for the z-score values is PubChem BioAssay AID488969 (Vanderbilt High Throughput Screening Facility, 2010).

In all, about 110,000 compounds were measured (“z-score”: median about -0.1, highest 2% from about 2 on). This is one part of the list. The source made the active and inactive calls.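 Rule for the calls: active = z-score in the third read window above 3 or below -3; inactive = the rest.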

The experiment addresses Metabotropic glutamate receptor 8 (Rattus norvegicus) (UniProt P70579). In words: mGluR8 Gi/Go-coupled signaling modulation – cell-based, rat, thallium flux, HTS, primary screen (AID 488969). Particulars: HEK293 rat mGluR8, GIRK (G protein-gated inwardly rectifying potassium channel) thallium flux, FluoZin2; at 10 µM; stronger effect = higher value; submaximal glutamate (EC20) added with thallium.
Sequence of UniProt P70579 (P70579 whole entry, looked up): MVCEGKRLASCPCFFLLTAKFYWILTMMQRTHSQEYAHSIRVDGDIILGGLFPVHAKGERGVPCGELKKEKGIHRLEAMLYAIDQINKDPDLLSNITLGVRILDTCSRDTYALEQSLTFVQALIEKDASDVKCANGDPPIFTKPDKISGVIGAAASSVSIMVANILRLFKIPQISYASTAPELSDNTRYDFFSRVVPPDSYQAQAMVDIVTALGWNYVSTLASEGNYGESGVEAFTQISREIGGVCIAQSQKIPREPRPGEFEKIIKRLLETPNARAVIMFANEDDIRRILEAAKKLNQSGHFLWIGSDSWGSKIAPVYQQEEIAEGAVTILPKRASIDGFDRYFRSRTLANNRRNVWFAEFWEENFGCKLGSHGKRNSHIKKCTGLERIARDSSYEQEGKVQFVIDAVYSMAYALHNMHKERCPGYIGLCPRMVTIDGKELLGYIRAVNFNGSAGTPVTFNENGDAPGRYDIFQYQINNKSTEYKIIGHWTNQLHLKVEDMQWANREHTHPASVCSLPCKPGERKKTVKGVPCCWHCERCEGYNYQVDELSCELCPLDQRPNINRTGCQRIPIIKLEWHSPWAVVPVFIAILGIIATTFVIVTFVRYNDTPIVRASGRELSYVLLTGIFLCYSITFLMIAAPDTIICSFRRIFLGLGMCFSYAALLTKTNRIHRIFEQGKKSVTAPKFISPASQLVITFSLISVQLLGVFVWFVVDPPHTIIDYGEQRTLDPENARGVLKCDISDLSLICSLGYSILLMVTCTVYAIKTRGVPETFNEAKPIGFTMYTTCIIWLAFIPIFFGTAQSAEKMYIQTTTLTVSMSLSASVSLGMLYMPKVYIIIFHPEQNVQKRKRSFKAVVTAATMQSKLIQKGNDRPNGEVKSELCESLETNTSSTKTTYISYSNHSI
In turn, `Cc1csc(NC(=O)c2cccc(Cn3nc(C)c(Br)c3C)c2)n1` showed a z-score of -0.225. The compound `N#CC1=C(N)Nc2nc3ccccc3n2C1c1ccc(Cl)cc1` (centres undefined) showed a z-score of -0.0798.

`COc1ccc(C(=O)NCC(=O)OCC(=O)Nc2cc(OC)ccc2OC)cc1` displayed a z-score of -0.0485. For `Cc1cccc(N2C(=O)NC3(CCCCC3)C2=O)c1` the value was 0.753.

As to `CCOC(=O)c1sc(NC(=S)NC(=O)c2ccco2)nc1C`, the z-score was active: 7.57. Consider `CC(=O)c1cccc(NC(=O)c2cnn3ccccc23)c1`, for which the z-score was -0.0821. In turn, `O=C(NCc1ccco1)c1ccc(C(=O)NCc2ccco2)s1` displayed a z-score of 0.211.

Compound `COc1ccc2[nH]c(=O)c(CN(CC3CCCO3)C(=O)Nc3ccccc3)cc2c1` (centres undefined) displayed a z-score of 0.117. For `COc1cc(CNCCN2CCOCC2)ccc1OCc1ccc(Cl)cc1Cl`, the z-score worked out at 1.1.

As for `Cc1ccc(NC(=O)CCN2C(=O)CSC2=O)cc1`, the z-score is -0.108. `Cc1ccc(-c2nc3sc4c(N)ncnc4c3c3c2CCCC3)cc1` came in with a z-score of -0.958. With `Cc1nn(C)c(Oc2ccccc2)c1[N+](=O)[O-]`, the z-score is -0.158. `COC(=O)/C=c1/s/c(=C(/C#N)C(=O)NCc2ccccc2)n(-c2ccccc2)c1=O` had a z-score of -0.262. For `Cc1cc(NC(=O)CCC(=O)N(Cc2ccco2)C(C(=O)NC2CCCCC2)c2ccccc2)no1` (centres undefined), the z-score was -0.181. As to `Cc1cccc(Nc2nnc(SCC(=O)Nc3ccccc3[N+](=O)[O-])s2)c1C`, the z-score is -0.242. For `Cn1c(CCNC(=O)c2ccco2)nc2cc(NC(=O)NC3CCCCC3)ccc21` the value was 0.635; for `CCOC(=O)c1ccc(NCc2nc3ccccc3n2C)cc1`, -0.703.

`O=c1c2cc(N3CCOCC3)ccc2[nH]c(=S)n1CCCN1CCCC1`: the z-score is -0.171. `CC1=CC(C)(C)N(C(=O)CN2C(=O)c3ccccc3C2=O)c2ccccc21` came in with a z-score of -0.18. For `COCCNC(=S)N1CCc2cc(OC)c(OC)cc2C1COc1ccc(C(C)C)cc1` (centres undefined), the z-score was -0.275. In the case of `CC(NC(=O)NCC1CCCO1)(C(F)(F)F)C(F)(F)F` (centres undefined), the z-score stood at 0.483. With `Cc1ccc(S(=O)(=O)N2CCOCC2)cc1NC(=O)CSc1cccc[n+]1[O-]`, the z-score was -0.145. For the compound `COc1ccc(/C=C/C(=O)OCC(=O)Nc2ccc(Cl)cc2F)cc1S(=O)(=O)N1CCOCC1`, the z-score is -0.323. For `C/C(CC(=O)Nc1cccc(F)c1)=N\NC(=O)C(=O)NC1CCCCC1` the value was -0.24; for `O=C(Nc1cc(Cl)ccc1Cl)c1ccc(OC(=O)c2ccco2)cc1`, -0.249; for `Cc1cnc(C(=O)OCC(=O)NCCc2ccccc2)cn1`, -0.972.

`COc1ccccc1CNS(=O)(=O)c1ccc2c(c1)oc(=O)n2C` registered a z-score of -0.394. `Cc1ccc(S(=O)(=O)CC(=O)c2ccc(C(C)(C)C)cc2)cc1` returned a z-score of -0.39. `Cc1ccc(C(=O)N2CC3(C(C)C)CN(C(=O)c4ccc(C)cc4)CC(C(C)C)(C2)C3=O)cc1` registered a z-score of -0.222. For `C=CCCCOc1ccc(C(=O)O)cc1` the value was -0.341; for `c1ccc(-c2ccc(C3=Nn4c(Cn5nnc6ccccc65)nnc4SC3)cc2)cc1`, 0.0434.

`CCCn1c(Nc2ccc(Cl)cc2)nc2ccccc21` came in with a z-score of -0.0675. For `COc1cc2[nH]c(=S)n(Cc3ccc(C)o3)c(=O)c2cc1OC` the value was -0.064; for `CC(C)Cc1nnc(NC(=O)CSc2nc(N)cc(=O)[nH]2)s1`, -0.113; for `Cc1cc(C)n(-c2nc3ccccc3c(=O)n2OCCOc2ccccc2)n1`, -0.385. For `CC(Oc1ccc2oc3ccccc3c2c1)C(=O)NC12CC3CC(CC(C3)C1)C2` (centres undefined), the z-score is -0.213.

`CCN(CC)S(=O)(=O)c1cccc(NC(=O)c2cc3ccccc3o2)c1` returned a z-score of 0.036. `O=C(O)CCCC(=O)N1N=C(c2c(-c3ccccc3)c3cc(Cl)ccc3[nH]c2=O)CC1c1cccs1` (centres undefined) came in with a z-score of -0.323. Take `CCCS(=O)(=O)N1CCCC(C(=O)NCc2cccnc2)C1` (centres undefined): the z-score is 0.129.

Compound `Cn1cc(C(=O)N/N=C/c2cccs2)c2ccccc21` yielded a z-score of -0.0725. Take `Cc1ccc(C)c(-c2nnc(OCC(=O)Nc3cc(C)on3)c3ccccc23)c1`: the z-score was -1.13. Compound `COc1ccc(NC(=O)CC2C(=O)N(c3ccc(F)cc3)C(=S)N2NC(=O)c2ccccc2)cc1` (centres undefined) registered a z-score of -0.285. For the compound `CC1CCCCN1S(=O)(=O)c1ccc(NC(=O)c2ccco2)cc1` (centres undefined), the z-score turned out to be 0.19.

As to `CCOC(=O)CSc1nnc(-c2ccc(NS(=O)(=O)c3ccc(C)cc3)cc2)o1`, the z-score was -0.0463.

In the case of `O=C(CC(CC(=O)c1ccccc1)C(=O)O)c1ccccc1`, the z-score was 0.308. For `Cc1cc(C)nc(NC(=O)/C=C/c2ccc3c(c2)OCO3)c1` the value was -0.353; for `CCCCN(C)S(=O)(=O)c1ccc(C(=O)Nc2nnc(-c3cccs3)o2)cc1`, active: 7.18.

Compound `COc1cc(C(=O)NC2=NCCS2)cc(OC)c1OC` had a z-score of 0.124. In turn, `COc1cccc(-c2nn(-c3ccccc3)cc2C(=O)Nc2nccs2)c1` gave a z-score of 1.25. For the compound `COc1cc(C)nc(Nc2nc(C)c(C(C)=O)s2)n1`, the z-score worked out at 0.337. As for `COc1ccc(-c2c(C(F)(F)F)oc3cc(OCC(=O)Nc4ccccc4C(F)(F)F)ccc3c2=O)cc1OC`, the figure is -0.166; as for `Cc1ccc(-c2noc(CCC(=O)Nc3ccc4c(c3)OCO4)n2)cc1`, 0.0347; as for `COc1ccc(-c2nc(NC(=O)Cn3c(=O)oc4ccccc43)sc2C)cc1`, -0.324. On to `CCOc1ccc(OCC)c(S(=O)(=O)NCc2ccccn2)c1`, for which the z-score is -0.171.

`CC1(C)C(=O)OC(C(=O)c2ccc(C(C)(C)C)cc2)C(C)(C)C1=O` (centres undefined) yielded a z-score of -0.103. As for `CCOc1cccc(N2C(=O)CC(N(CCc3ccc(OC)c(OC)c3)C(=O)CC)C2=O)c1` (centres undefined), the figure is -0.147.

Consider `O=C(C1CC=CCC1)N1CCN(C(=O)C2CC=CCC2)CC1` (centres undefined), for which the z-score came out at 0.183.

Compound `COC(=O)C1CCN(S(=O)(=O)c2c(C)n(C)c(=O)n(C)c2=O)CC1` registered a z-score of 0.394.

For the compound `O=C(CO)N/N=C/c1ccccc1F`, the z-score stood at 0.52. For `Nc1ccc(N2CCCCCC2)cc1` the value was -0.49; for `Fc1ccc(CSc2nnc(-c3cccnc3)n2Cc2ccco2)cc1`, -0.0445; for `CC(C)(C)n1nnnc1C(c1cccnc1)N1CCN(C(=O)c2ccco2)CC1` (centres undefined), 0.232.

Take `Cc1nc(SCC(=O)Nc2ccc3c(c2)OCCO3)c2oc3ccccc3c2n1`: the z-score is -0.371. Consider `CC1(C)C(=O)Nc2ccccc2N1C(=O)COC(=O)C1CCCCC1`, for which the z-score was -0.393. For `COc1ccc(-c2oc3ncn4nc(COc5ccccc5)nc4c3c2-c2ccc(OC)cc2)cc1` the value was 0.349; for `CC(C)NC(=O)c1ccc(N2CCOCC2)nc1`, 0.11; for `O=c1oc(/C=C/c2ccccc2)nc2sc3c(c12)CCC3`, 0.168. As for `CC(=NCCN1CCNCC1)C1=C(O)CC(C)(C)CC1=O`, the figure is -0.0318; as for `COc1ccc(CNC(=S)NC2CCCC2)cc1`, -0.126. For the compound `Cc1cccc(OCCNc2cc(N3CCN(C)CC3)ccc2[N+](=O)[O-])c1`, the z-score is 0.365.

Take `COc1ccccc1-c1noc(-c2cc(OC)c(OC)c(OC)c2)n1`: the z-score was -0.307.

`COCCN1C(=O)c2ccc(C(=O)O)cc2C1=O` came in with a z-score of 0.445. As for `CCN(CC)C(=O)CCc1nc2sc3c(c2c(=O)[nH]1)CCCC3`, the figure is 0.0581; as for `O=C(Nc1ccc(C(=O)N2CCCCC2)cc1)C1CCCCC1`, -0.147; as for `Cc1nn2c(nc1=O)SCC(c1ccccc1)=N2`, 0.0358. Regarding `CCC(C)(C)n1nnnc1C(C(C)C)N1CCN(C)CC1` (centres undefined), the z-score is 0.33.

In turn, `O=C(Oc1ccc(Br)cc1C(=S)N1CCCCC1)c1cc([N+](=O)[O-])cc([N+](=O)[O-])c1` came in with a z-score of 0.762. For `Oc1ccccc1/C=N/NC1=NCCCCC1` the value was 0.265. For `CC12C(=O)N(Cc3ccco3)C(=O)C1C1c3ccccc3C2c2ccccc21` (centres undefined) the value was -0.0557.

`O=C(NCc1ccccn1)c1cnc2sccn2c1=O` registered a z-score of -0.351. `CC(=O)Nc1ccc(S(=O)(=O)Nc2cccc(NC(=O)C(C)(C)C)c2)cc1`: the z-score was -0.165. As for `Nc1nc(SCc2ccc(Cl)cc2)ns1`, the figure is -0.8; as for `CC1C(C(=O)Nc2ccccc2)CCCC1(C)C(=O)O` (centres undefined), 0.276. In the case of `Cn1nc(CC(=O)NCCN2C(=O)CSC2=O)c2ccccc2c1=O`, the z-score is -0.832. `Cc1ccc(C(NC(=O)c2ccccc2)C(Cl)Cl)cc1` (centres undefined) showed a z-score of -0.318. Turning to `CCOC(=O)C1=C(c2ccccc2)Nc2ncnn2C1c1cc(OC)ccc1OC` (centres undefined), the z-score is -0.2. Take `CN(C)C(=O)N1CCCC(C(=O)NCCc2ccccc2)C1` (centres undefined): the z-score is 0.092. For the compound `COC(=O)c1cnn(-c2ccc(C)c(C)c2)c1-n1cccc1`, the z-score is -0.224.

`O=C(CN(c1ccccc1)S(=O)(=O)c1ccccc1)N1CCN(Cc2ccc3c(c2)OCO3)CC1` registered a z-score of -0.639. `CNc1ccc(Br)cc(C(=O)/C=C/c2cccc(OC)c2)c1=O` gave a z-score of -0.351.

The compound `COc1cccc(/C=N/NC(=O)Cn2ccnc2C)c1` returned a z-score of -0.0436. For `O=C(N1CCOCC1)N1CCN(c2ccccc2F)CC1` the value was 0.209. Compound `CC(/C=N/n1c(C2CCCCC2)n[nH]c1=S)=C\c1ccccc1` had a z-score of 2.13.

`O=C(NC12CC3CC(CC(C3)C1)C2)c1ccc(=O)oc1` had a z-score of 0.319.

Compound `CCOC(=O)c1c(C)[nH]c(C)c1C(=O)COC(=O)/C=C/c1ccc(OC(F)F)cc1` showed a z-score of -0.244.

With `Cc1ccc(CN2CCN(C(=O)CCN3C(=O)c4ccccc4C3=O)CC2)cc1`, the z-score is 1.4. For `COc1ccc(Cl)cc1NC(=S)N1CCN(c2ccccn2)CC1` the value was -0.203; for `COc1ccc(NC2=CC(c3ccc(OC)c(OC)c3)N(c3ccc(OC)cc3)C2=O)cc1` (centres undefined), -0.044. In turn, `CCOC(=O)c1nn(-c2ccccc2)c(=O)cc1SC(C)CC` (centres undefined) yielded a z-score of -0.352. For `COC(=O)c1ccc(Cl)c(NC(=O)CN(c2ccc3c(c2)OCO3)S(C)(=O)=O)c1` the value was 0.625. On to `Nc1nonc1C(=O)NCCNC(=O)c1cccs1`, for which the z-score turned out to be 0.032. `OCCNCc1cc(Br)ccc1OCc1ccc(Cl)cc1` yielded a z-score of 0.286. In turn, `O=C1C(c2ccc(F)cc2)N(CC2COc3ccccc3O2)C(=O)CN1C1CCCCC1` (centres undefined) returned a z-score of 0.063. As to `CCOC(=O)c1c(C)oc2cc(Br)c(OC(=O)N3CCOCC3)cc12`, the z-score is -0.509. The compound `CCCCNC(=O)c1nnn(-c2ccccc2)c1N` gave a z-score of -0.117. In turn, `COc1cc(C2C3=C(CC(c4ccco4)CC3=O)Nc3ccccc3N2C(C)=O)cc(OC)c1OC` (centres undefined) had a z-score of 0.158.

For `Cc1ccc2nc(-c3ccc(N4C(=NC(=O)CCC(=O)O)SC5CS(=O)(=O)CC54)cc3)sc2c1` (centres undefined), the z-score is -0.29.

Turning to `Cc1cc(C)n2nc(S(=O)(=O)NCCc3ccccc3)nc2n1`, the z-score amounted to 0.0701. As for `Cc1onc(-c2ccccc2Cl)c1C(=O)OCn1nnc2ccccc2c1=O`, the z-score was -1.33.
